Screen size: about 360,000 compounds; about 7,500 (2.1%) were called active. Roughly 20% stayed inconclusive and do not appear here. The call rests on the fitted dose curve; in most records, active means well fitted inhibition curve with a large enough effect; inconclusive means small, poorly fitted or top-dose-only effect, or effect the other way; inactive means flat fitted curve, though single readings scatter. This is a selection; strong and weak results do not stand in their true shares. More than one record can exist for a structure, and the calls need not agree.
Assay: Nrf2 qHTS screen for inhibitors; further: nearly all actives have a fitted effect of over 60% in size
Details: A549 ARE-Fluc reporter, luciferase luminescence, 18-24 h; series mostly up to 46 µM; activity change, negative = inhibition: at the top concentration
In short: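 Concentration-response testing used A549 ARE_Fluc cells at 5000 cells/well. Following an 18-24 h compound incubation, viability was read by fluorescence (Ex 405/Em 525) and luciferase output by luminescence.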
On the % scale 0 is the no-effect control and ±100 the full control effect; potency means the concentration at half of the fitted maximal effect.

Row | Structure (SMILES) | activity change, negative = inhibition | Potency
1 | COc1ccc(OC)c(C2=NS(=O)(=O)N(C)C(C(=O)Nc3ccc(F)cc3F)=C2)c1 | inactive: -8.79% | 
2 | CC(C)N(CCCNC(=O)Cn1ncc2c([nH]c3ccccc32)c1=O)Cc1ccccc1 | inactive: 4.43% | 
3 | C=CC[C@@H](CC(=O)N(CCO)Cc1ccccc1)C(=O)N[C@H](C)COC(=O)[C@@H](CC=C)Cc1ccc(F)cc1 | inactive: -16.8% | 
4 | Cc1ccc(C(NC(=O)NC(C)c2ccccc2)C(Cl)(Cl)Cl)cc1F (centres undefined) |  | active: 16.4 µM
5 | COc1ccccc1C(=O)N/C(=C/c1ccc(Br)cc1)C(=O)NCC(=O)O | inactive: 2.14% | 
6 | C=CCCN(C1CCCC1)S(=O)(=O)c1ccccc1Br | inactive: -1.3% | 
7 | CC[C@@H]1CCCCc2ccccc2[C@H](C(=O)C[C@H](O)CC(C)=O)OC1=O | inactive: 8.65% | 
8 | C[C@@H]1CN([C@@H](C)CO)C(=O)c2cc(NC(=O)Nc3ccc4c(c3)OCO4)ccc2O[C@H]1CN(C)S(=O)(=O)c1cn(C)cn1 | inactive: 3.7% | 
9 | Cc1ccc(C(=O)Nc2nc(=O)[nH]s2)cc1 | inactive: -0.297% | 
10 | CN(C)S(=O)(=O)c1cccc(NC(=O)CSc2nc3ccccc3[nH]2)c1 |  | active: 20.6 µM
11 | CC(=O)c1c(C)[nH]c(C(=O)OCC(=O)NCC(C)C)c1C |  | active: 10.3 µM
12 | COc1ccc(/C=C\C(=O)c2c(O)ccc3c(C)cc(=O)oc23)cc1 | inactive: -27.1% | 
13 | COc1cc(Cl)c(NS(=O)(=O)c2cc3[nH]c(=O)c(=O)[nH]c3cc2C)c(OC)c1 | inactive: 0.895% | 
14 | Cc1ccc(-c2csc(/C=C3/SC(C)C(=O)N3CC(=O)Nc3ccccc3F)n2)cc1 (centres undefined) | inactive: -4.76% | 
15 | CCOC(=O)c1ccccc1NC(=O)Cc1ccc(OC)c(S(=O)(=O)N2CCOCC2)c1 |  | active: 18.4 µM
16 | Cc1cc(C)c(OC2(c3ccccc3)OC(=O)c3ccccc32)c(C)c1 (centres undefined) |  | active: 9.2 µM
17 | COc1ccc(CCNC(=O)c2ccc(CS(=O)(=O)c3ccc(C)cc3)o2)cc1OC |  | active: 20.6 µM
18 | C[C@H]1CCC[C@]2(O[C@H](CCO)C[C@H](O)[C@H]2O)O1 | inactive: 11.8% | 
19 | CCOc1ccc(CNCCNC(=O)c2nonc2N)cc1 | inactive: 3.28% | 
20 | COc1cc([C@@H]2Nc3c(F)cccc3[C@@H]3C=CC[C@@H]32)cc(Br)c1OC | inactive: 5.17% | 
21 | N#C/C(=C/c1ccc(N2CCOCC2)o1)C(=O)NC1CCCCC1 | inactive: 1.77% | 
22 | Cc1ccc(NC(=O)C2CCCN2S(=O)(=O)c2cccc3cccnc23)c(C)c1 (centres undefined) | inactive: -18.1% | 

Row | Structure (SMILES) | activity change, negative = inhibition | Potency
23 | Cc1ccc(-c2nn(CCC(N)=O)c(=O)c3ccccc23)cc1 | inactive: -16% | 
24 | Cc1ccc(NC(=O)CSc2nc3ccccc3c3nc(CCc4c(C)n[nH]c4C)nn23)cc1F |  | active: 13 µM
25 | CC(=O)c1ccc(NC(=O)CCc2c(C)nn(-c3ccc(N4CCOCC4)nn3)c2C)cc1 | inactive: 21.8% | 
26 | Cc1cc(C)c(S(=O)(=O)NCCc2cc3ccc(C)c(C)c3[nH]c2=O)c(C)c1 | inactive: -3.85% | 
27 | O=C(/C=C/c1ccc(-c2ccccc2)o1)c1ccccc1 | inactive: 10.8% | 
28 | Cc1c(NS(=O)(=O)c2cccc(C(=O)O)c2)c(=O)n(-c2ccccc2)n1C | inactive: 11.7% | 
29 | CCN1C(=O)[C@@H]2[C@@H](c3ccc(-c4ccc(OC)cc4)cc3)N3CCCC[C@@]3(C(=O)OC)[C@@H]2C1=O | inactive: -16.4% | 
30 | O=C1N[C@@H](Cc2ccccc2)C(=O)N2[C@H]1C[C@]1(Br)c3ccccc3N(S(=O)(=O)c3ccc(F)cc3)[C@H]21 | inactive: 4.97% | 
31 | COC(=O)c1cc(S(=O)(=O)NCC2CCN(Cc3cc(C)ccc3C)CC2)c[nH]1 | inactive: -9.62% | 
32 | C#CCNC(=O)C1=C[C@@H](C2CCCCC2)[C@H](CCCO)[C@@H](OCC)O1 | inactive: -15.2% | 
33 | CCCCN(C)C(=O)C(Cc1ccccc1)NS(=O)(=O)c1ccc2c(c1)c(=O)n(C)c(=O)n2C (centres undefined) | inactive: 3.6% | 
34 | O=C1N[C@H](Cc2ccccc2)COC(=O)[C@H](Cc2ccc(F)cc2)C/C=C\C[C@H]1CC(=O)N(CCO)Cc1ccccc1 | inactive: -8.45% | 
35 | COC(=O)c1cc(NC(=O)Cn2nc(C)n3cccc3c2=O)cc(C(=O)OC)c1 | inactive: 12.8% | 
36 | COc1ccccc1N1CCN(S(=O)(=O)c2cc3[nH]c(=O)c(=O)[nH]c3cc2C)CC1 | inactive: 3.2% | 
37 | CCn1c(COc2c(C)cccc2C)nnc1SCC(=O)N1CCN(c2ccccc2)CC1 |  | active: 18.4 µM
38 | CC(C)CC(=O)Nc1ccc(C(=O)NNC(=S)NC(=O)C2CCCCC2)cc1 |  | active: 8.2 µM
39 | COc1cc(/C=N/NC(=O)c2ccncc2)ccc1O | inactive: -0.595% | 
40 | COC(C[C@@H]1O[C@@H]1[C@@H](O)[C@@H](C)OCc1ccccc1)OC | inactive: -4.43% | 
41 | CC(C)(C)S(=O)N1Cc2cc(=O)n(Cc3ccccc3)cc2[C@@H]1CCO (some centres undefined) | inactive: 22.5% | 
42 | Oc1ccc(C[C@@H]2CNCCN2CCc2cccc(F)c2)cc1 | inactive: -11.1% | 
43 | COc1ccc(C2=CC(=O)C[C@H](c3ccc(OC)cc3)C2)cc1 | inactive: 7.05% | 
44 | COc1cc(OC)cc(C(=O)Nc2ccc3c(c2)OCCO3)c1 | inactive: 12% | 

Reference: PubChem BioAssay AID504444 (National Center for Advancing Translational Sciences (NCATS), 2011)
